According to the supplement of paper PMC10441789:
The list shows a part of the results. Antibody binding of pooled human sera (four to six donors per pool; dilution not stated) to peptides of the Trypanosoma cruzi antigen TSSA on microarrays. Quantile-normalised fluorescence in arbitrary units, mean of duplicate arrays; higher = more binding. No active / inactive call. The uninfected pools are read here as the healthy donors of the same country. The strongest signals lie near the top of the scale (about 60,000).

The sequences below were run on pooled sera of chronic Chagas disease patients, Argentina (assay: antibody binding signal (normalised fluorescence) (arbitrary fluorescence units); higher = stronger serum antibody binding to peptide).
Procedure: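 Microarray of 15-residue peptides over residues 30-55 of Trypanosoma cruzi TSSAII, each with 1 to 10 substitutions at naturally variable positions, probed with one serum pool per country.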

Row | Sequence | antibody binding signal
1 | SGTEKKAAAGGTPSP | 1020
2 | STPPSGKEKKPAAGE | 24200
3 | EKKPATGETPSQSGA | 36200
4 | SGKENKTATGETPSQ | 2220
5 | DKKTATGGTPSQSGA | 543
6 | TDKKAATGGTPSQPG | 1190
7 | SGTENKTAAGEAPSQ | 27700
8 | KDNKAAAGEAPSQPG | 4800
9 | KAATGEAPSPPGASS | 22700
10 | TDKKTAAGEAPSQPG | 5710
11 | GKDKKPATGGTPSPP | 613
12 | NKAATGEAPSPSGAS | 13200
13 | SGTEKKTATGGAPSQ | 4630
14 | ISTPPSGKDKKPAAG | 17400
15 | SGTDNKAAAGGAPSQ | 278
16 | TEKKTAAGEAPSPPG | 676
17 | GTEKKAATGGTPSPP | 1140
18 | ISTPPSGKEKKPATG | 19000
19 | SSTPPSGTDKKAAAG | 31300
20 | TENKTATGGTPSPSG | 21500

Row | Sequence | antibody binding signal
21 | TPPSGTDNKPAAGEA | 46900
22 | EKKAAAGETPSPSGA | 1830
23 | GTDNKTAAGETPSQS | 166
24 | KDNKTATGETPSPPG | 746
25 | SGTDNKPAAGGTPSP | 2180
26 | PSGKEKKPATGGAPS | 13700
27 | GKEKKAATGGAPSPS | 1670
28 | PPSGKDKKTATGGAP | 1740
29 | ENKTAAGEAPSQPGA | 7800
30 | PSGKENKAATGEAPS | 31100
31 | KENKAAAGGTPSPPG | 139
32 | EKKTATGGTPSPSGA | 634
33 | GKENKAATGETPSQS | 11500
34 | STPPSGKEKKAAAGE | 16000
35 | SGKEKKPAAGEAPSP | 12200
36 | TPPSGTDKKTATGGT | 21600
37 | PPSGKENKPATGETP | 38400
38 | KEKKTATGETPSPSG | 206
39 | KDKKAATGEAPSQPG | 9700
40 | DNKAAAGGAPSPPGA | 393
